The source of these data is the antibiotic and cytotoxicity screens of Wong et al. (2023).

For assay [1], the system named is HSkMC (human skeletal muscle cells). As to the kind of experiment: cytotoxicity call (relative viability < 0.9). Particulars: 10 µM.
The test system of assay [2] is HepG2. As to the kind of experiment: cytotoxicity call (relative viability < 0.9). Particulars: 10 µM.
The subject of assay [3] is S. aureus RN4220. In words: growth inhibition call (relative growth <= 0.2). Particulars: 50 µM.

The list shows a part of the results.

For the molecule `COc1cccc(C#Cc2cnc3c(c2)C(=O)N([C@H](C)CO)C[C@H](C)[C@@H](CN(C)C(=O)C2CCC2)O3)c1`, the cytotoxicity call in assay [1] and in assay [2] was “inactive” each time. In addition, the growth inhibition call in assay [3] is “inactive”.

For `Cc1ccc(Nc2c(F)cccc2Cl)c(CC(=O)O)c1`, the cytotoxicity call in assay [1] and in assay [2] was “inactive” throughout. Besides, in assay [3], the growth inhibition call is “inactive”.

Regarding `COc1ccccc1S(=O)(=O)N[C@H]1CC[C@@H](CCNC(=O)C2CC2)O[C@@H]1CO`, the cytotoxicity call in assay [1] and in assay [2] was “inactive” each time. Besides, in assay [3], the growth inhibition call was “inactive”.

On to `O=c1cc[nH]c(=O)[nH]1`, for which the cytotoxicity call in assay [1] and in assay [2] was “inactive” in each case. Besides, the growth inhibition call in assay [3] is “inactive”.

For the molecule `CC(=C\C(=O)O)/C=C(\C)C[C@H](C)CCCC[C@H](OC(=O)[C@H](CO)[C@H](O)CCCC[C@H](C)C/C(C)=C/C(C)=C/C(=O)O)[C@@H](CO)C(=O)O`, the cytotoxicity call in assay [1] and in assay [2] was “inactive” each time. In assay [3], the growth inhibition call was “inactive”.

As to `Cc1cccc(N(CC(=O)O)CC(=O)O)c1`, the cytotoxicity call in assay [1] and in assay [2] was “inactive” throughout. Also, the growth inhibition call in assay [3] was “inactive”.

In the case of `Cc1ccc(S(=O)(=O)Nc2ccc3c(c2)C(=O)N([C@@H](C)CO)C[C@H](C)[C@@H](CN(C)C(=O)Nc2ccc(F)cc2)OCCCC[C@@H](C)O3)cc1`, the cytotoxicity call in assay [1] and in assay [2] was “inactive” throughout. In addition, the growth inhibition call in assay [3] was “inactive”.

Regarding `CCNC1CC(C)S(=O)(=O)c2sc(S(N)(=O)=O)cc21.Cl` (centres undefined), the cytotoxicity call in assay [1] and in assay [2] was “inactive” in each case. Further, in assay [3], the growth inhibition call was “inactive”.

For the molecule `C[C@@H]1COC(=O)[C@@H](Cc2ccc(F)cc2)CCC=CC[C@@H](CC(=O)N[C@H](CO)Cc2ccccc2)C(=O)N1`, the cytotoxicity call in assay [1] and in assay [2] was “inactive” each time. Also, in assay [3], the growth inhibition call was “inactive”.

For the molecule `CCOC(=O)CNC(=O)c1cc(C)on1`, the cytotoxicity call in assay [1] and in assay [2] was “inactive” each time. In addition, the growth inhibition call in assay [3] is “inactive”.

Consider `Cc1noc(C)c1S(=O)(=O)N(C)C[C@@H]1Oc2ccc(NC(=O)CCCN(C)C)cc2C(=O)N([C@H](C)CO)C[C@@H]1C`, for which the cytotoxicity call in assay [1] and in assay [2] was “inactive” throughout. Also, in assay [3], the growth inhibition call was “inactive”.

With `C[C@@H]1CCCCO[C@@H](CN(C)C(=O)Nc2cccc3ccccc23)[C@H](C)CN([C@H](C)CO)C(=O)c2cc(NC(=O)CCCN(C)C)ccc2O1`, the cytotoxicity call in assay [1] and in assay [2] was “inactive” throughout. For the same molecule, the growth inhibition call in assay [3] was “inactive”.

In the case of `COc1ccc(CN(C)C[C@@H]2Oc3ccc(NS(=O)(=O)c4cn(C)cn4)cc3C(=O)N([C@H](C)CO)C[C@H]2C)cc1`, the cytotoxicity call in assay [1] and in assay [2] was “inactive” each time. Further, the growth inhibition call in assay [3] was “inactive”.

Consider `Cc1ccc(S(=O)(=O)Nc2ccc3c(c2)C(=O)N([C@@H](C)CO)C[C@@H](C)[C@H](CN(C)C(=O)Nc2ccc(F)cc2)OCCCC[C@@H](C)O3)cc1`, for which the cytotoxicity call in assay [1] and in assay [2] was “inactive” throughout. Moreover, the growth inhibition call in assay [3] is “inactive”.

On to `CCCNC(=O)N1C[C@H](C)[C@@H](OC)CN(C)C(=O)c2ccc(NS(=O)(=O)CC(F)(F)F)cc2OC[C@H]1C`, for which the cytotoxicity call in assay [1] and in assay [2] was “inactive” throughout. Also, the growth inhibition call in assay [3] is “inactive”.

`COc1ccc(NC(=O)Nc2ccc3c(c2)C(=O)N([C@@H](C)CO)C[C@@H](C)[C@@H](CN(C)Cc2ccc(-c4ccccc4)cc2)O3)cc1`: the cytotoxicity call in assay [1] is “inactive”. Moreover, in assay [2], the cytotoxicity call was “active”. Also, the growth inhibition call in assay [3] was “inactive”.

`COc1ccc(C[C@H]2c3cc(OC)c(OC)cc3CC[N@+]2(C)CCC(=O)OCCCCCOC(=O)CC[N@+]2(C)CCc3cc(OC)c(OC)cc3[C@@H]2Cc2ccc(OC)c(OC)c2)cc1OC`: the cytotoxicity call in assay [1] and in assay [2] was “inactive” in each case. In addition, the growth inhibition call in assay [3] was “inactive”.

With `Nc1c(O)cccc1C(=O)O`, the cytotoxicity call in assay [1] and in assay [2] was “inactive” throughout. The growth inhibition call in assay [3] is “inactive”.

As for `C[C@@H]1CN([C@@H](C)CO)C(=O)c2cc(NC(=O)Nc3ccc4c(c3)OCO4)ccc2O[C@@H](C)CCCCO[C@@H]1CN(C)S(=O)(=O)c1cccs1`, the cytotoxicity call in assay [1] and in assay [2] was “inactive” throughout. Besides, the growth inhibition call in assay [3] was “inactive”.

On to `COc1ccc(S(=O)(=O)Nc2ccc3c(c2)C(=O)N([C@H](C)CO)C[C@H](C)[C@H](CN(C)C(=O)C2CCCCC2)OCCCC[C@H](C)O3)cc1`, for which the cytotoxicity call in assay [1] is “inactive”. In addition, the cytotoxicity call in assay [2] was “active”. In assay [3], the growth inhibition call was “inactive”.

As to `C#Cc1ccc([C@H]2C=C(C(=O)N3CCOCC3)O[C@@H](OCCCCOC(=O)NCCCCCC(=O)NO)C2)cc1`, the cytotoxicity call in assay [1] and in assay [2] was “inactive” in each case. Besides, the growth inhibition call in assay [3] is “inactive”.

In the case of `C[C@@H]1CN([C@H](C)CO)C(=O)c2cccc(NS(C)(=O)=O)c2O[C@H]1CN(C)C(=O)Nc1ccccc1`, the cytotoxicity call in assay [1] and in assay [2] was “inactive” in each case. Besides, the growth inhibition call in assay [3] was “inactive”.

With `C[C@@H]1CN([C@@H](C)CO)C(=O)Cc2cc(NC(=O)C3CC3)ccc2O[C@H]1CN(C)S(=O)(=O)c1ccc(F)cc1`, the cytotoxicity call in assay [1] and in assay [2] was “inactive” throughout. Besides, the growth inhibition call in assay [3] was “inactive”.

As for `O=C(C[C@H]1CC[C@@H]2[C@H](COC[C@@H](O)CN2C(=O)Nc2ccc(C(F)(F)F)cc2)O1)NCCc1ccncc1`, the cytotoxicity call in assay [1] and in assay [2] was “inactive” in each case. The growth inhibition call in assay [3] is “active”.

For the molecule `Cc1noc(C)c1S(=O)(=O)N(C)C[C@H]1Oc2ccc(NC(=O)CCC(F)(F)F)cc2CC(=O)N([C@H](C)CO)C[C@H]1C`, the cytotoxicity call in assay [1] and in assay [2] was “inactive” in each case. Further, the growth inhibition call in assay [3] is “inactive”.

Regarding `C[C@@H]1CN([C@@H](C)CO)C(=O)c2cc(NC(=O)C3CCCCC3)ccc2O[C@@H](C)CCCCO[C@@H]1CN(C)C(=O)Nc1ccc(F)cc1`, the cytotoxicity call in assay [1] and in assay [2] was “inactive” each time. The growth inhibition call in assay [3] was “inactive”.

In the case of `C[C@@H]1CN([C@H](C)CO)C(=O)c2c(c3ccccc3n2C)-c2ccccc2CO[C@H]1CN(C)Cc1cccc2c1OCCCO2`, the cytotoxicity call in assay [1] and in assay [2] was “inactive” each time. In addition, the growth inhibition call in assay [3] was “inactive”.

In the case of `C=C1c2cccc(O)c2C(=O)C2=C(O)[C@]3(O)C(O)=C(C(N)=O)C(=O)[C@@H](N(C)C)[C@@H]3[C@@H](O)[C@H]12`, the cytotoxicity call in assay [1] and in assay [2] was “inactive” throughout. Besides, the growth inhibition call in assay [3] was “inactive”.
